Test results from PMC6919601, “Identification of Plasmodium dipeptidyl aminopeptidase allosteric inhibitors by high throughput screening” (PLoS ONE, 2019).
The campaign covered roughly 110,000 compounds. About 230 (0.21%) showed an effect of 50% or more. This is one part of the list.

The compounds below were run against DPAP1 (Plasmodium falciparum, UniProt Q8IIJ9) (assay: primary screen, percent inhibition; read by cleavage of a fluorogenic dipeptide substrate; higher = more effect of the substance).
Sequence of DPAP1 (Q8IIJ9 whole entry, looked up): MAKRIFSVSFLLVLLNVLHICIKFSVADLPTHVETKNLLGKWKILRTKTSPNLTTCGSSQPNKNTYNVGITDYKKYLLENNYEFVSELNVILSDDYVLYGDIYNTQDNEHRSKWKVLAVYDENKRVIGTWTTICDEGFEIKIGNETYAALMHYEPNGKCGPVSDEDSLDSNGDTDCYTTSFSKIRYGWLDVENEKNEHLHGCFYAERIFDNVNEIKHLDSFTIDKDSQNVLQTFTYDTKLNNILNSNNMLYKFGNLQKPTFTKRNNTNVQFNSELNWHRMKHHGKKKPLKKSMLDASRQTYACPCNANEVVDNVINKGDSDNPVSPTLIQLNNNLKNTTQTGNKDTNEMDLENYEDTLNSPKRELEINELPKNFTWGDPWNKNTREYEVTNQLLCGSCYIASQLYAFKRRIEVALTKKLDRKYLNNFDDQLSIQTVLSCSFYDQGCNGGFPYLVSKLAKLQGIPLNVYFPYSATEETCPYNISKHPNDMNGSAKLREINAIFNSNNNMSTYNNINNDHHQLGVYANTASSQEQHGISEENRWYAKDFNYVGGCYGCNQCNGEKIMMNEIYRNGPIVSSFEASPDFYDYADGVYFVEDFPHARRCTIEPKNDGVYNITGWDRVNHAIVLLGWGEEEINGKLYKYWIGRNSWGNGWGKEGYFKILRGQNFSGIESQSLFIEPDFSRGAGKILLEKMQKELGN
Parameters: species or system P. falciparum D10 trophozoite lysates; single well
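Note: 30 min substrate incubation versus DMSO and 10 µM JCP410 controls.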

| Structure (SMILES) | % Inhibition @ 10 uM |
| --- | --- |
| O=C(C(Cc1ccccc1)N1C(=O)c2ccccc2C1=O)N1CCCCCC1 (stereo not drawn) | -6.95% |
| Oc1cc(NCc2ccccc2)nc(O)n1 | -1.19% |
| C/N=C1\S/C(=C\c2ccc(-c3ccc(Cl)cc3C(=O)O)o2)C(=O)N1C | -3.67% |
| CCn1c2c(c3cc(Br)ccc31)CCCC2O (stereo not drawn) | -8.71% |
| CCOC(=O)N1CCC(c2nc3ccccc3[nH]2)CC1 | -1.03% |
| CC1CCC(N2CCCC(CO)C2)C1 (stereo not drawn) | -2.03% |
| COc1ccc(CCNC(=O)CN2C(=O)c3ccccc3S2(=O)=O)cc1 | 1.52% |
| N#Cc1c(NC(=O)CCN2C(=O)C3C4C=CC(C4)C3C2=O)sc2c1CCCC2 (stereo not drawn) | -2.45% |
| CC(Oc1cccc(Cl)c1)C(=O)NCc1ccc2c(c1)OCO2 (stereo not drawn) | -3.06% |
| O=C(Nc1ccccc1)SCC(=O)c1ccc(O)cc1 | -2.62% |
| COc1ccc2[nH]c(SCC(=O)Nc3ccc4c(c3)OCO4)nc2c1 | 0.674% |
| Cc1cccc(NC(=O)c2ccc(Cl)cc2)n1 | 7.73% |
| O=C(O)CCCC(=O)Nc1cnn(Cc2ccccc2)c1 | -4.28% |
| Cc1ccc(OCC(=O)Nc2ccc(O)cc2)cc1 | -0.95% |
| COc1cccc(C(=O)N(Cc2ccc(C(C)C)cc2)C2CCS(=O)(=O)C2)c1 (stereo not drawn) | 0.198% |
| O=C(OCCN1CCCCC1)c1ccc(O)cc1O | -4.15% |
| CC(C)c1ccc2c(N)c(C(=O)Nc3nc4ccccc4s3)sc2n1 | 1.31% |
| Cc1ccccc1OCCCCn1ccnc1 | -7.99% |
| Cc1cccc(C2C(C#N)=C(N)Oc3cc(C)oc(=O)c32)c1 (stereo not drawn) | -3.13% |
| c1ccc(OCCCN2CCCCC2)cc1 | 2.76% |
| CCOC(=O)CC1(c2ccc(CC)cc2)C(=O)c2ccccc2C1=O | 3.48% |
| N#CC1=C(SCC(=O)NCc2ccccc2)N=C2CCCC(O)=C2C1c1ccc2c(c1)OCO2 (stereo not drawn) | 3.79% |
| COc1ccccc1C1C2=C(O)CC(C)(C)CC2=Nc2ncnn21 (stereo not drawn) | 1.73% |
| COc1cccc(-c2nnc(NC(=O)/C=C/c3ccccc3)s2)c1 | 13.5% |
| COc1ccc(Br)c(C(=O)Nc2c(O)oc3ccccc3c2=O)c1 | -0.148% |

| Structure (SMILES) | % Inhibition @ 10 uM |
| --- | --- |
| COc1ccc(NC(=O)c2ccc(CNS(=O)(=O)c3cccc(OC)c3)cc2)cc1 | 0.161% |
| COc1ccc(N(CC(=O)NCc2ccco2)S(=O)(=O)c2ccc(OC)c(OC)c2)cc1 | 3.48% |
| CC1=Nc2ncnn2C(c2ccccc2Cl)/C1=C(/O)OCc1ccccc1 (stereo not drawn) | -3.14% |
| COc1ccc(C(=O)N2CCN(c3ccc(OCc4ccccc4)cc3)CC2)cc1 | -5.54% |
| O=C(CN(C1CCCCC1)S(=O)(=O)c1ccc(Br)cc1)NCc1cccnc1 | -5.27% |
| CCOC(=O)c1conc1-c1ccc([N+](=O)[O-])cc1 | -1.56% |
| OC1CCN(Cc2ccc(Cl)cc2Cl)CC1 | -3.72% |
| CC(C)C[C@H](NS(=O)(=O)c1ccc(-c2ccccc2Cl)cc1)C(=O)NCC#N | -2.02% |
| CC1(C)C(=O)N(OCc2ccccc2)C(C)(C)C(=O)N1OCc1ccccc1 | 2.7% |
| Cc1ccccc1C(=O)c1ccc(O)c(C)c1O | 2.3% |
| N#CCNC(=O)[C@H](Cc1cc(Cl)c(O)c(Cl)c1)NC(=O)c1ccc(-c2ccccc2)cc1 | -4.72% |
| O=C1S/C(=C/c2ccc3c(c2)OCO3)C(=O)N1CNc1ccccc1F | -5.1% |
| Cc1cc2ccccc2n1-c1ccc(C(=O)N2CCN(C)CC2)s1 | -2.83% |
| COc1ccc(CCN2CC(C(=O)NCc3ccc(F)cc3)CC2=O)cc1OC (stereo not drawn) | 1.62% |
| CCO/C(O)=C1\C(C)=Nc2nc(-c3ccccc3OC)nn2C1c1ccc(Cl)cc1 (stereo not drawn) | -0.125% |
| Cc1[nH]c2ccccc2c1CCNS(=O)(=O)c1ccc(F)cc1 | -3.04% |
| Cc1cc(C(=O)C(=O)Nc2nnc(-c3ccco3)s2)c(C)n1-c1ccc(Cl)cc1 | -1.06% |
| O=C1CC(c2ccc(C(F)(F)F)cc2)C2=C(CC(c3ccccc3Cl)CC2=O)N1 (stereo not drawn) | -4.81% |
| CC(C)C[C@H](NC(=O)N1CCN(CCc2ccccc2)CC1)C(=O)NCC#N | -3.48% |
| CCOC(=O)c1c(NC(=O)CN2CCCCC2)sc2c1CCCC2O (stereo not drawn) | 4.33% |
| COc1cc(OC)cc(C(=O)Nc2ccc3oc(-c4ccccc4F)nc3c2)c1 | 13.9% |
| CCn1c2ccccc2c2nnc(NCCc3cc(OC)ccc3OC)nc21 | 0.813% |
| O=C1c2ccccc2C(=O)N1c1ccc(Cl)cn1 | -2.32% |
| COc1ccc(S(=O)(=O)c2cc(NC(=O)c3ccccc3)c(C)c(C)c2O)cc1 | -1.95% |
| CCCSc1ncc(Cl)c(C(=O)Nc2sc(C(C)=O)c(C)c2C(=O)OC)n1 | -2.21% |

| Structure (SMILES) | % Inhibition @ 10 uM |
| --- | --- |
| CCCNC(=O)c1cc2nc(-c3cccs3)cc(C(F)(F)F)n2n1 | -3.26% |
| O=C(NCc1ccccc1Cl)C1CCC(CNS(=O)(=O)c2cccc3cccnc23)CC1 (stereo not drawn) | 0.981% |
| COc1ccc(CN2CCN(Cc3ccc(C(F)(F)F)cc3)CC2)cc1OC | -1.49% |
| CCOC(=O)C1=C(Cn2cncn2)NC(=O)NC1c1ccc2c(c1)OCO2 (stereo not drawn) | -0.0678% |
| CCc1c(-c2nnc(S)n2CC)csc1C | 3.94% |
| COc1ccccc1OCc1nc(C#N)c(N2CCOCC2)o1 | -4.62% |
| NC(=O)c1ccc(NC(=O)CSCc2ccccc2Br)cc1 | -0.99% |
| O=C(CN1C(=O)c2ccccc2C1=O)Nc1ccccc1Oc1ccccc1 | -1.02% |
| CCNC(=O)c1cc2c(=O)n3cc(C)ccc3nc2n(C(C)CC)c1=N (stereo not drawn) | -7.08% |
| NC(=O)C1CCN(C(=O)c2ccc3nc(-c4ccccc4)c(-c4ccccc4)nc3c2)CC1 | 8.35% |
| Clc1ccccc1CN1CCN(c2ccccn2)CC1 | 1.4% |
| Cc1ccc(Cl)cc1N1CCN(C(=O)CN(C2CCCCC2)S(C)(=O)=O)CC1 | 1.94% |
| CC(NC(=O)[C@H](Cc1ccccc1)N1Cc2ccccc2C1=O)c1cccs1 (stereo partly drawn) | -2.25% |
| C=CCSc1ncc(Cl)c(C(=O)NCc2ccc3c(c2)OCO3)n1 | 0.758% |
| O=C(O)c1ccccc1C(=O)Nc1cccc(Cl)c1Cl | -1.95% |
| CN1CCN(C(=O)CN(Cc2ccc(Br)cc2)S(=O)(=O)c2ccccc2)CC1 | 0.408% |
| COC(=O)c1cc2ccsc2n1CC(=O)N(C)C1CCCCC1 | -13.9% |
| N#Cc1c(O)nc(SCc2nc(N)nc(N3CCCCC3)n2)nc1-c1ccccc1 | -0.105% |
| CCC1C(c2ccccc2)NC(c2ccccc2)CC1(O)Cc1ccccc1 (stereo not drawn) | -1.56% |
| CC1CCC(N2CCC(C(N)=O)CC2)C1 (stereo not drawn) | -4.75% |
| O=C(NCc1ccccc1)c1cccc2c3c([nH]c12)C(C(=O)O)CCC3 (stereo not drawn) | 2.13% |
| CN(CCNC(=O)C1c2ccccc2C(=O)N(C)C1c1cn(C)c2ccccc12)Cc1ccccc1 (stereo not drawn) | 3.5% |
| O=C1NC(=O)N(Cc2ccccc2)C(=O)/C1=C\c1ccc(SCc2ccc(Cl)cc2)o1 | -5.25% |
| Cc1cccc(-n2c(C)nc3ccsc3c2=O)c1 | -1.12% |
| Cc1sc(C)c(CNC(C)C)c1CNC(C)C | -1.29% |

| Structure (SMILES) | % Inhibition @ 10 uM |
| --- | --- |
| CC(C)n1c(N(C)C)nc2c1c(=O)[nH]c(=O)n2C | -0.13% |
| Cc1ccc2c(c1)c1c(n2C)/C(=N/NC(N)=S)CCC1 | -4.84% |
| CCOC(=O)c1c(N)n(-c2ccc(C)cc2)c2nc3ccccc3nc12 | 4.73% |
| O=C(CN1C(=O)S/C(=C\c2ccc(O)cc2)C1=O)N1CCOCC1 | 1.52% |
| CCN(c1ccccc1)S(=O)(=O)c1ccc(NC(=O)COc2ccccc2C)cc1 | -9.02% |
| CCNC(=O)C1=C2c3ccccc3CC(C)(C)N2C(=O)C1=O | 3.57% |
| Cc1ccc(-c2nc(-c3cc4ccc(O)cc4oc3=O)cs2)c(C)c1 | 0.815% |
| COc1ccc(S(=O)(=O)/C=C/c2ccccc2)cc1 | -4.08% |
| O=C1NC(=O)c2cc(S(=O)(=O)NCCCO)cc3cccc1c23 | 1.74% |
| COc1cc(OC)cc(C(=O)N2CCN(Cc3cccc4ccccc34)CC2)c1 | -0.795% |
| CCOc1cccc(-c2cc(C(=O)O)c3cc(Br)ccc3n2)c1 | 5.31% |
| CCOc1cc(C2C(C(=O)OC)=C(C)N=C3C2=C(O)c2ccccc23)c(Br)cc1O (stereo not drawn) | 6.08% |
| N#Cc1ccccc1NC(=O)c1ccc([N+](=O)[O-])cc1 | -9.41% |
| COc1ccc(-c2c3c(nc4sc(C(C)=O)c(N)c24)C(=O)c2ccccc2-3)cc1 | -2.87% |
| N=C1/C(=C\c2ccc(SCc3ccccc3)o2)C(=O)N=C2SC(CC(=O)N3CCOCC3)=NN12 | 1.62% |
| Nc1nc(Cn2c(-c3nonc3N)nc3ccccc32)nc(N2CCCCC2)n1 | 8.38% |
| Cc1cccc2c(C(=O)O)cc(-c3ccccc3)nc12 | -1.74% |
| COc1ccc(O)c(CN2CCCC(C)C2)c1 (stereo not drawn) | -1.78% |
| O=C(O)c1cccc([N+](=O)[O-])c1C(=O)N1CCN(C(=O)c2ccco2)CC1 | -1.76% |
| CCOc1ccc(CNCc2c(C(=O)O)n(Cc3ccc(C)cc3)c3cc(OC)ccc23)cc1OC | 0.436% |
| O=C(NCCCN1CCC(Cc2ccccc2)CC1)c1nnc(Cc2ccc(Cl)cc2Cl)o1 | 7.64% |
| Cc1ccc(C(C)NC(=O)c2ccccc2)cc1 (stereo not drawn) | -5.11% |
| Cc1ccc(N(Cc2ccc(F)cc2)C(=O)c2ccc([N+](=O)[O-])cc2)cc1 | -1.8% |
| Cc1cc2nc(COc3ccccc3)cc(=O)n2o1 | -0.495% |
